Test results taken from patent publication US11712429B2, “Low eructation composition and methods for treating and/or preventing cardiovascular disease in a subject with fish allergy/hypersensitivity” (Amarin Pharmaceuticals Ireland Limited, priority 2010, dated 2023).

Conditions: human, in vivo, 6 months

red blood cell content of 20:5n3 (EPA), mean: 3.07%
Compound: CC/C=C\C/C=C\C/C=C\C/C=C\C/C=C\CCCC(=O)OCC [AMR101, all-cis eicosa-5,8,11,14,17-pentaenoic acid ethyl ester]
